Measurements: FireProtDB
Where “and” joins values, the source holds several entries; their conditions need not be identical. Identical values can stand only once.

[1] = Homo sapiens, pH 7.2, 25 °C, GdnHCl, CD, Phosphate 100 mM
[2] = Homo sapiens, pH 7.2, 25 °C, GdnHCl, Fluorescence, Phosphate 100 mM
[3] = Homo sapiens, pH 8, 25 °C, GdnHCl, Fluorescence, Sodium phosphate 50mM, transition: 2, reversible: yes
[4] = Homo sapiens, pH 7.5, 23 °C, GdnHCl, CD, HEPES 20 mM, reversible: Unknown
[5] = Homo sapiens, pH 7.4, 25 °C, GdnHCl, CD, potassium phosphate 10 mM, KCl 50 mM, reversible: Unknown
[6] = Homo sapiens, pH 6.5, 25 °C, GdnHCl, CD, MES 0.01 M, NaCl 0.09 M, reversible: yes
[7] = Homo sapiens, pH 6.5, 25 °C, GdnHCl, Fluorescence, MES 10 mM, NaCl 90 mM, reversible: no
[8] = Homo sapiens, pH 7.5, 25 °C, Urea, CD, Sodium phosphate 50 mM, NaCl 0.1 M, reversible: yes
[9] = Escherichia coli (strain K12), pH 7, 25 °C, GdnHCl, CD, Potassium phosphate 10 mM, reversible: Unknown
[10] = Escherichia coli (strain K12), pH 7, 25 °C, GdnHCl, CD, sodium phosphate 30 mM, KCl 0.1 M, reversible: Unknown
[11] = Escherichia coli (strain K12), pH 7, 25 °C, GdnHCl, Fluorescence, sodium phosphate 30 mM, KCl 0.1 M, reversible: Unknown
[12] = Escherichia coli (strain K12), pH 7, 25 °C, GdnHCl, CD, phosphate 50 mM, reversible: yes
[13] = Escherichia coli (strain K12), pH 7, 25 °C, Urea, CD, phosphate 50 mM, reversible: yes
[14] = Escherichia coli (strain K12), pH 7.4, Thermal, DSC, CGH-10, reversible: no
[15] = Escherichia coli (strain K12), pH 5.7, 20 °C, GdnHCl, CD, Potassium phosphate 10 mM, reversible: yes
[16] = Escherichia coli (strain K12), pH 8.7, 25 °C, Urea, CD, Tris 0.375 M, reversible: Unknown
[17] = Homo sapiens, pH 8, 25 °C, Urea, Fluorescence, Tris-acetate 50 mM, reversible: yes

For “Apolipoprotein A-I wild type (sequence left out)”, which unfolding free energy (Homo sapiens, pH 7.8, 25 °C, GdnHCl, CD, phosphate 20 mM, NaCl 10 micro M, reversible: yes) is on record?
Its unfolding free energy is 2.5 kcal/mol.

With “Cellular retinoic acid-binding protein 1 wild type (chain not printed)” as the substance, how does the Tm (Bos taurus, pH 7, Thermal, CD, potassium phosphate 10 mM, reversible: Unknown) read?
Its Tm is 54 °C.

With “Fibroblast growth factor 1 wild type (no sequence given)” as the substance, how does the denaturant m value [1] read?
Its denaturant m value is 3.6 kcal/mol/M.

And the “denaturant midpoint (higher = more stable)” value (“denaturant midpoint” below) [1]?
The value was 1.8 M.

And the unfolding free energy [1]?
Its unfolding free energy is 6.5 kcal/mol.

What about the denaturant m value [2] of the same substance?
Its denaturant m value is 4.7 kcal/mol/M.

What about the “denaturant midpoint” value [2] of the same substance?
Its value is 0.9 M.

What about the unfolding free energy [2] of the same substance?
Its unfolding free energy is 4.5 kcal/mol.

Which denaturant m value [3] does the source give for “Fibroblast growth factor 1 wild type (sequence left out)” here?
The denaturant m value was 4.97 kcal/mol/M.

What about the “denaturant midpoint” value [3] of the same substance?
Its value is 1.23 M.

What about the unfolding free energy [3] of the same substance?
The unfolding free energy was 6.11 kcal/mol.

Which unfolding free energy [4] does the source give for Insulin wild type (chain not printed) here?
Its unfolding free energy is 4.5 kcal/mol.

With Insulin wild type (letters omitted) as the substance, how does the denaturant m value [5] read?
The denaturant m value was 0.84 kcal/mol/M.

And the “denaturant midpoint” value [5]?
The value was 5.3 M.

And the unfolding free energy [5]?
Its unfolding free energy is 4.4 kcal/mol.

And the “denaturant midpoint” value [4]?
Its value is 5 M.

What does the source list for Insulin wild type (no sequence given)?
Tm (Homo sapiens, pH 1.8, Thermal, DSC, HCl, reversible: no): 60 °C; unfolding free energy (Homo sapiens, pH 2, 23 °C, GdnHCl, CD, Tris/MES/acetate 50 mM/25 mM/25 mM/, reversible: Unknown): 5.81 kcal/mol

Which unfolding free energy (Homo sapiens, pH 7.5, 23 °C, GdnHCl, CD, HEPES 20 mM, reversible: yes) does the source give for Insulin wild type (sequence left out) here?
The unfolding free energy was 4.5 kcal/mol.

For “Interleukin-1 beta wild type (chain not printed)”, which “denaturant midpoint” value [6] is on record?
The value was 1.26 M.

And the unfolding free energy [6]?
Its unfolding free energy is 7.03 kcal/mol.

With “Interleukin-1 beta wild type (letters omitted)” as the substance, how does the “denaturant midpoint” value [7] read?
The value was 1.35 M.

What about the unfolding free energy [7] of the same substance?
The unfolding free energy was 9.1 kcal/mol.

Which results are given for “Interleukin-6 wild type (no sequence given)”?
denaturant midpoint (higher = more stable) [8]: 5.5 M; unfolding free energy [8]: 5 kcal/mol

With “Interleukin-6 wild type (sequence left out)” as the substance, how does the unfolding free energy (Homo sapiens, pH 8.6, 25 °C, GdnHCl, CD, Tris-HCl 0.1 M, reversible: yes) read?
Its unfolding free energy is 4.59 kcal/mol.

With “Small ubiquitin-related modifier 2 wild type (sequence left out)” as the substance, how does the Tm (Homo sapiens, pH 7, Thermal, CD, Phosphate 50 mM, transition: 2) read?
Its Tm is 71.9 °C and 70.9 °C.

What about the Tm (Homo sapiens, pH 7, Thermal, Fluorescence, Phosphate 50 mM, transition: 2) of the same substance?
The Tm was 73.1 °C and 72.5 °C.

For “Somatotropin wild type (no sequence given)”, which Tm (Homo sapiens, pH 5.5, Thermal, CD, Sodium phosphate 50 mM, reversible: Unknown) is on record?
Its Tm is 82 °C.

With “Thioredoxin 1 wild type (chain not printed)” as the substance, how does the denaturant m value [9] read?
The denaturant m value was 3.2 kcal/mol/M.

And the “denaturant midpoint” value [9]?
Its value is 2.5 M.

What about the unfolding free energy [9] of the same substance?
Its unfolding free energy is 7.9 kcal/mol.

What about the “denaturant midpoint” value [10] of the same substance?
Its value is 2.5 M.

And the unfolding free energy [10]?
The unfolding free energy was 9.6 kcal/mol.

And the “denaturant midpoint” value [11]?
The value was 2.5 M.

What about the unfolding free energy [11] of the same substance?
Its unfolding free energy is 9.6 kcal/mol.

Which “denaturant midpoint” value [12] does the source give for “Thioredoxin 1 wild type (letters omitted)” here?
Its value is 2.6 M.

What about the unfolding free energy [12] of the same substance?
Its unfolding free energy is 8.6 kcal/mol.

And the “denaturant midpoint” value [13]?
Its value is 6.7 M.

And the unfolding free energy [13]?
The unfolding free energy was 8.7 kcal/mol.

What about the Tm (Escherichia coli (strain K12), pH 7, Thermal, CD, phosphate 50 mM, reversible: yes) of the same substance?
Its Tm is 82 °C.

For “Thioredoxin 1 wild type (no sequence given)”, which unfolding free energy (Escherichia coli (strain K12), pH 7.4, 25 °C, GdnHCl, DSC, CGH-10, reversible: no) is on record?
Its unfolding free energy is 8.9 kcal/mol.

And the Tm [14]?
The Tm was 87.3 °C.

And the “unfolding enthalpy (calorimetric)” value [14]?
Its value is 112 kcal/mol.

Which denaturant m value [15] does the source give for “Thioredoxin 1 wild type (sequence left out)” here?
Its denaturant m value is 3.7 kcal/mol/M.

What about the “denaturant midpoint” value [15] of the same substance?
The value was 2.61 M.

What about the unfolding free energy [15] of the same substance?
Its unfolding free energy is 9.5 kcal/mol.

And the unfolding free energy (Escherichia coli (strain K12), pH 8.7, 23 °C, Urea, Absorbance, Tris 0.1 M, KCl 0.2 M, reversible: yes)?
Its unfolding free energy is 6.1 kcal/mol and 9.7 kcal/mol.

With “Thioredoxin 1 wild type (sequence not shown)” as the substance, how does the unfolding free energy (Escherichia coli (strain K12), pH 7, 25 °C, GdnHCl, CD, Potassium phosphate 50 mM, reversible: Unknown) read?
The unfolding free energy was 8.9 kcal/mol.

And the unfolding free energy (Escherichia coli (strain K12), pH 8.7, 23 °C, GdnHCl, CD, Tris-HCl 0.1 M, KCl 0.2 M, reversible: yes)?
The unfolding free energy was 5 kcal/mol and 8.1 kcal/mol.

What about the “denaturant midpoint” value [16] of the same substance?
The value was 7.4 M and 4.4 M.

What about the unfolding free energy [16] of the same substance?
The unfolding free energy was 10 kcal/mol and 6.5 kcal/mol.

For “Triosephosphate isomerase wild type (sequence left out)”, which denaturant m value [17] is on record?
Its denaturant m value is 1.72 kcal/mol/M.

What about the unfolding free energy [17] of the same substance?
The unfolding free energy was 19.3 kcal/mol.

With “U1 small nuclear ribonucleoprotein A wild type (chain not printed)” as the substance, how does the unfolding free energy (Homo sapiens, pH 5.5, 25 °C, Urea, CD, sodium acetate 5 mM, reversible: Yes) read?
The unfolding free energy was 6 kcal/mol.
